From PubChem BioAssay AID1477 (National Center for Advancing Translational Sciences (NCATS), 2009)
Fewer than 10 of roughly 230,000 compounds were called active. The inconclusive results got no clear call from the source; some entries with a clear call stand among them for comparison. Calls follow the shape of the dose curve; as a rule, active = well fitted curve in the direction sought with a large enough effect; inconclusive = small, poorly fitted or top-dose-only effect, or effect the other way, or another doubt; inactive = no such curve, though single readings can be large or run the other way. No potency is given beside an inconclusive call; the fits are too rough.

The molecules below were run against Runt-related transcription factor 1 (Homo sapiens) + Core-binding factor subunit beta (Homo sapiens) (UniProt Q01196+Q13951) (assay: qHTS Assay for Compounds Blocking the Interaction Between CBF-beta and RUNX1 for the Treatment of Acute Myeloid Leukemia). Details: AlphaScreen CBFb-His/RUNX1-biotin binding, biochemical; series mostly up to 59.8 µM.
Sequence of UniProt Q01196 (Q01196 whole entry, looked up): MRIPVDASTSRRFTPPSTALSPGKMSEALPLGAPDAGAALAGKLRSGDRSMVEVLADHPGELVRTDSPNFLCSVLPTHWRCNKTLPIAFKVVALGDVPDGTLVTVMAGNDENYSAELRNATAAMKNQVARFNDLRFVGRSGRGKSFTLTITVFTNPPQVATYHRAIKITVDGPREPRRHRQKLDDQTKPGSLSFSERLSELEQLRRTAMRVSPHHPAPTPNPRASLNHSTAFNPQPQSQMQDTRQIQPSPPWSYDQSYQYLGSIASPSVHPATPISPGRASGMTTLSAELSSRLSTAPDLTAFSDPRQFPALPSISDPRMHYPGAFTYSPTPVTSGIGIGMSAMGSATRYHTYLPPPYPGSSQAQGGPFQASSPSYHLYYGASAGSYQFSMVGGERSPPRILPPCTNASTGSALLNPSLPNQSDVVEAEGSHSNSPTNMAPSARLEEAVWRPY
Sequence of UniProt Q01196 (Q13951 whole entry, looked up): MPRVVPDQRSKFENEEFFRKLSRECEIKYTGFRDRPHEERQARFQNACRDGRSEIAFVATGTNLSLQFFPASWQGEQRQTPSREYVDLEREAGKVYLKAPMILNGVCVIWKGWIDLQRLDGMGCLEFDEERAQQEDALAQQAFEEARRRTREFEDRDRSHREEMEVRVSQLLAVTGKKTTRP
Procedure, shortened: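 Compounds were screened at multiple concentrations against a preformed CBF-beta(His)/RUNX1(biotin) complex (30 nM of each) for 15 min at room temperature, followed by 90 min with nickel and streptavidin beads and AlphaScreen reading.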

Row | SMILES | Potency
1 | O=C(NN1C(=O)C2C(c3ccccc3)C=CC(c3ccccc3)C2C1=O)c1ccccc1 (stereo not given) | inconclusive [inhibitor, single point]
2 | Nc1c(C(=O)OC2CCCCC2)c2nc3ccccc3nc2n1CC1CCCO1 (stereo not given) | inconclusive [activator, partial curve]
3 | COc1ccccc1N1C(=O)CC(Nc2ccc(N3CCOCC3)cc2)C1=O (stereo not given) | inconclusive [inhibitor, single point]
4 | CCOC(=O)NC(=O)/C(C#N)=C\NNc1ncc(C(F)(F)F)cc1Cl | inactive
5 | CC(C)N(C(=O)CC1ON(C)C(=O)N1c1ccc(Cl)cc1)C(C)C (stereo not given) | inconclusive [activator, partial curve, poor fit]
6 | COc1cc(OC)c(C2=NOC(C(=O)NCCc3ccccc3)C2)cc1Cl (stereo not given) | inconclusive [inhibitor, single point]
7 | COc1cc(/C=C/c2ccc(O)cc2)cc(OC)c1 | inactive
8 | CC/C(=N/O)c1cnnc(SC)n1 | inactive
9 | O=C(c1ccc(Br)s1)N1CCN(C/C=C/c2ccccc2)CC1 | inactive
10 | Nc1cc(=O)[nH]c(SCCNS(=O)(=O)c2ccccc2)n1 | inconclusive [inhibitor, single point]
11 | O=C(CN(Cc1ccccc1)S(=O)(=O)c1ccccc1)N/N=C/c1ccc([N+](=O)[O-])cc1 | inconclusive [inhibitor, single point]
12 | COc1ccc(-c2cc(C(F)(F)F)nc(SCC(=O)N3CCOCC3)n2)cc1OC | inconclusive [inhibitor, single point]
13 | CC(=O)OC1C[C@]2(C)[C@@H](CC(O)C3[C@]4(C)CCC(O)C(C)[C@@H]4CC[C@]32C)/C1=C(/CCC=C(C)C)C(=O)O (stereo not given in full) | inconclusive [activator, full curve, poor fit]
14 | COc1ccccc1N1N=C(c2cccs2)CC1c1ccccc1 (stereo not given) | inconclusive [activator, partial curve]
15 | CN(Cc1ccccc1)C(=O)CCSc1nc(-c2ccc3c(c2)OCO3)cc(C(F)(F)F)n1 | inconclusive [activator, partial curve]
16 | O=C(O)C1CCN(C(=O)c2cc(F)cc3c2OCOC3)CC1 | inconclusive [inhibitor, single point]
17 | Cc1cc(C=O)c(C)n1-c1ccc(N2CCCC2)c([N+](=O)[O-])c1 | inconclusive [inhibitor, single point]
18 | Cc1ccc(C)c(/C=N/NC(=S)NC(C)C)c1 | inactive
19 | Cn1ncc2c(NNC(=O)Cc3cccc4ccccc34)ncnc21 | inactive
20 | O=C1CSC(=S)N1/N=C/c1ccc(O)c([N+](=O)[O-])c1 | inconclusive [inhibitor, single point]
21 | COc1cccc(C(=O)NC2CC3CCCC(C2)N3CC(=O)Nc2ccccc2)c1 (stereo not given) | inconclusive [inhibitor, partial curve]
22 | Fc1ccc(C2CC(c3cccs3)=NN2c2ccccc2)cc1 (stereo not given) | inconclusive [activator, partial curve]
23 | CN(C)C1C(=O)C(C(N)=O)=C(O)[C@@]2(O)C(=O)C3=C(O)c4c(O)cccc4[C@@](C)(O)C3[C@H](O)C12 (stereo not given in full) | inactive
24 | CCOC(=O)CSc1nc(-c2ccccc2)cc(C(F)(F)F)n1 | inconclusive [activator, partial curve]
25 | O=S(=O)(c1ccc(Cl)nc1)N(Cc1ccccc1)Cc1ccccc1 | inconclusive [activator, single point]
26 | O=c1c2c(-c3ccccc3)csc2nc2c3ccccc3c(NCCN3CCOCC3)nn12 | inconclusive [activator, partial curve]
27 | CCOC(=O)c1csc(NC(=O)c2cc(=O)c3ccccc3o2)n1 | inconclusive [inhibitor, single point]

Row | SMILES | Potency
28 | CCCCN(CC)C(=O)/C=C/c1cccc([N+](=O)[O-])c1 | inactive
29 | CCN=c1scc(-c2ccc(F)cc2)n1/N=C/c1ccccn1 | inconclusive [inhibitor, partial curve]
30 | CCCC(=O)c1ccc(N2CCN(S(=O)(=O)c3ccc(C)cc3)CC2)c(F)c1 | inconclusive [inhibitor, single point]
31 | Nc1ccc2nc(-c3cccnc3)[nH]c2c1 | inconclusive [activator, single point]
32 | O=C(C1CC(=O)N(c2ccc3c(c2)OCCO3)C1)N1CCN(c2ccccc2)CC1 (stereo not given) | inconclusive [inhibitor, single point]
33 | CC1=C(C)C(C)=C(C#N)C(=C(C#N)C#N)N1 | inactive
34 | COc1ccc(/C(C)=N/NC(=O)C(NC(=O)c2ccccc2)c2n[nH]c(=O)c3ccccc23)c(OC)c1 (stereo not given) | inconclusive [activator, full curve, poor fit]
35 | O=C(Nc1nnc(-c2ccncc2)o1)c1cccc(N2C(=O)CCC2=O)c1 | inconclusive [inhibitor, partial curve]
36 | COCc1cc(C)nc(N2CCc3ccccc32)c1C#N | inconclusive [activator, partial curve]
37 | Cc1onc(-c2ccccc2Cl)c1C(=O)NCc1ccc2c(c1)cc(C)n2C | inconclusive [inhibitor, single point]
38 | S=C(NCC1CCCO1)Nc1ccc(Cl)cc1Cl (stereo not given) | inactive
39 | CCOC(=O)c1sc(N=NC2=C(O)CCCC2=O)c(C(=O)OCC)c1C | inconclusive [inhibitor, single point]
40 | CN(c1ccccc1)S(=O)(=O)c1ccc(Cl)c(C(=O)Nc2nc3ccccc3[nH]2)c1 | inactive
41 | O=C(COc1ccccc1)Nc1ccccc1Oc1ccccc1 | inconclusive [activator, partial curve]
42 | Cc1c(C(=O)N2CC3(CC(c4cccc(NC(=O)[C@H]5CCC(=O)N5)c4)=NO3)C[C@@H]2C(N)=O)cc([N+](=O)[O-])cc1[N+](=O)[O-] (stereo not given in full) | inconclusive [inhibitor, single point]
43 | O=C1c2cccc3cccc(c23)C(=O)N1/N=C/c1c(O)n(-c2ccccc2)c(=O)[nH]c1=O | inactive
44 | O=c1cc(CSc2ccc(Cl)cc2)[nH]c2[nH]n(-c3ccccc3)c(=O)c12 | inconclusive [inhibitor, partial curve]
45 | Cc1cccc(C)c1NC(=O)C(c1ccc([N+](=O)[O-])cc1)N(C)C(=O)c1ccccn1 (stereo not given) | inconclusive [inhibitor, single point]
46 | CC1(C)CC(N2CCCCC2)=CC(=[N+]2CCCCC2)C1 | inactive
47 | Cc1ccccc1NC(=O)c1ccc(Nc2c([N+](=O)[O-])cc([N+](=O)[O-])c3ccccc23)cc1 | inconclusive [inhibitor, partial curve]
48 | Cc1ccc(-c2nn(-c3ccccc3)cc2CN(Cc2ccccc2)C(=O)c2ccco2)o1 | inconclusive [inhibitor, single point]
49 | N#CC1=C(N)N2C(=C(C#N)C1c1ccccc1)Sc1ccccc12 (stereo not given) | inactive
50 | CNc1sc(C(=O)c2ccccc2F)c(N)c1-c1nc2ccccc2s1 | inconclusive [inhibitor, partial curve]
51 | COCc1cc(C)[nH]c(=O)c1C#N | inactive
52 | Cc1ccc(S(=O)(=O)CCC(=O)OCc2ccc(S(=O)(=O)C(C)C)cc2)cc1 | inactive
53 | OC[C@@H]1[C@@H](c2ccc(F)cc2)C(c2ccc(F)cc2)=NN1c1ccccc1 | inconclusive [activator, single point]
54 | COc1cc(NC(=O)c2ccnnc2)cc(C(=O)Nc2cccc(C(F)(F)F)c2)c1 | inconclusive [activator, partial curve]

Row | SMILES | Potency
55 | CC1CCCC(NC(=O)c2ccc3c(=O)n(CC4CCCO4)c(=O)[nH]c3c2)C1C (stereo not given) | inactive
56 | CC(C)(C)Nc1scc(-c2ccccc2)[n+]1-c1ccccc1 | inconclusive [inhibitor, full curve, poor fit]
57 | COCCNC(=O)Cn1cc(S(=O)(=O)N2CCN(c3ccccc3F)CC2)c2ccccc2c1=O | inconclusive [inhibitor, single point]
58 | COC(=O)c1cc(Nc2cc(C)c3ccc(O)cc3n2)cc(C(=O)OC)c1 | inactive
59 | COc1ccc(Cl)cc1NC(=O)C1CCCN(S(=O)(=O)c2cccc3nonc23)C1 (stereo not given) | inactive
60 | COc1ccc(N2CCN(C(CNC(=O)C(=O)NCCCn3ccnc3)c3cccnc3)CC2)cc1 (stereo not given) | inconclusive [inhibitor, partial curve]
61 | Clc1ccc(-c2nnc(-c3ccc(Br)cc3)c(N3CCSCC3)n2)cc1 | inactive
62 | CC(=O)OC(C)C | inactive
63 | NC(=O)C1CCN(c2cc(Cl)ccc2[N+](=O)[O-])CC1 | inconclusive [activator, single point]
64 | Cc1ccsc1C(=O)OCC(=O)NCc1ccc2c(c1)OCO2 | inactive
65 | Cc1ccc(-c2[nH]c3ccccc3c2C(C[N+](=O)[O-])c2ccco2)cc1 (stereo not given) | inconclusive [inhibitor, single point]
66 | O=C(Nc1nccs1)c1ccc(N2C(=O)C3CCCCC3C2=O)cc1 (stereo not given) | inactive
67 | Nc1c(C(=O)NCCc2ccccc2)c2nc3ccccc3nc2n1CCN1CCOCC1 | inconclusive [activator, partial curve]
68 | C/C(=N\Nc1ncc(Cl)cc1Cl)c1ccccn1 | inconclusive [inhibitor, partial curve]
69 | c1coc(-c2nn3c(-c4ccco4)nnc3s2)c1 | inconclusive [inhibitor, single point]
70 | CCC(C)(C)n1c(=O)[nH]c2c(c1=O)CCC2 | inconclusive [activator, single point]
71 | CCOC(=O)c1cc(-c2ccc3c(c2)OCCO3)nc2c1c(C)nn2CCC#N | inconclusive [activator, partial curve]
72 | O=C(N/N=C/c1cccc([N+](=O)[O-])c1)C1COc2ccccc2O1 (stereo not given) | inactive
73 | COc1ccccc1NC(=S)N(CCCN1CCOCC1)Cc1cn(C)c2ccccc12 | inactive
74 | O=[N+]([O-])c1ccc(N2CCN(C(=S)NCc3ccc(Cl)cc3)CC2)cc1 | inconclusive [inhibitor, partial curve, poor fit]
75 | COc1ccc(C2/C=C\CN(C(=O)C3CCCC3)C(C)C(=O)N2Cc2ccc(F)cc2)cc1 (stereo not given) | inactive
76 | COc1ccc(N=Cc2cc(Cc3ccccc3Cl)cc([N+](=O)[O-])c2O)cc1OC | inconclusive [inhibitor, partial curve]
77 | CCOC(=O)c1c(-c2ccccc2)oc2ccc(OC)cc12 | inconclusive [activator, single point]
78 | NC(=O)COc1ccccc1C(=O)O | inconclusive [activator, single point]
79 | C=CCn1c(C)cc(C(=O)CSc2nnc(NCc3ccccc3)s2)c1C | inconclusive [inhibitor, single point]
80 | CCOC(=O)COc1ccc2nsnc2c1Cl | inactive
